# Measurements taken from PubChem BioAssay AID1508642 (National Center for Advancing Translational Sciences (NCATS), 2021).
# The campaign covered roughly 43,000 compounds. About 200 (0.47%) were called active. About 12% were inconclusive and are not listed. Calls come from the whole dose curve; as a rule, active = well fitted cell-killing curve with a large enough effect; inconclusive = small, poorly fitted or top-dose-only effect, or effect the other way; inactive = flat fitted curve, though single readings scatter. The list shows a part of the results.
# Test: Cell viability qHTS assay in S16 Pmp22-F2sN cells; note: nearly all actives have a fitted effect of over 65% in size
# Settings: S16 Pmp22-F2sN Schwann cells (luciferase reporters placed in the Pmp22 gene) viability, CellTiter-Glo, 24 h; series mostly up to 57.5 µM; activity change, negative = cytotoxicity: at the top concentration
# Summary of the method: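 Luminescence from CellTiter-Glo, read by CCD camera after a 15 min room-temperature incubation, served as the viability signal. Reporter Schwann cells (S16 Pmp22-F2sN) had been treated with pin-transferred compounds for 24 h at 37C.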
# % is set by controls: 0 for no effect and ±100 for the full control effect.
row,Compound,"activity change, negative = cytotoxicity"
1,Cc1noc(-c2ccc(-c3noc(-c4cccc(Cl)c4)n3)cc2)n1,inactive: -2.07%
2,Cc1ccc(S(=O)(=O)C(CNC(=O)c2ccc(C(F)(F)F)cc2)c2ccco2)cc1 (configuration not stated),inactive: -13.3%
3,CCc1ccc2occ(CC(=O)Nc3sc4c(c3C(=O)NCCOC)CCCC4)c2c1,inactive: -1.83%
4,Cc1nc2nc(SCC(=O)NC3CCC(C)CC3)nn2c(C)c1Cc1ccccc1Cl (configuration not stated),inactive: -3.15%
5,Cn1cc(S(=O)(=O)N2CCCCC2)cc1C(=O)Nc1ccc(OC(F)(F)F)cc1,inactive: 8.1%
6,O=C(Cn1cc(S(=O)(=O)c2ccccc2)c(=O)c2cc3c(cc21)OCO3)Nc1ccccc1,inactive: 1.82%
7,O=C(NCCCc1ccccc1)c1nn(-c2ccccc2)nc1CO,inactive: -3.88%
8,Cc1ccc(S(=O)(=O)n2nc(-c3ccco3)nc2NCc2ccc(N(C)C)cc2)cc1,inactive: -4.82%
9,CCOC(=O)c1ccc(NC(=O)CCC(=O)N2CCSc3ccccc32)cc1,inactive: 2.69%
10,CCc1ccc2oc(-c3ccc(C)c(NC(=O)c4ccc(C#N)cc4F)c3)nc2c1,inactive: 0.719%
11,CCn1cc2nc(SCc3cccc(C)c3)n(CCc3ccccc3)c(=O)c2n1,inactive: 6.6%
12,Cc1ccccc1NC(=O)Cn1cc(S(=O)(=O)N2CCCC2)c(S(=O)(=O)N2CCCC2)c1,inactive: -0.924%
13,CC1=C(C(=O)Nc2ccccc2)C(c2ccccn2)n2nc(SCc3ccccc3Cl)nc2N1 (configuration not stated),inactive: 16.6%
14,CCC(=O)Nc1cccc(OCc2cc(=O)n3cc(C)ccc3n2)c1,inactive: -1.24%
15,COC(=O)c1ccc(Oc2nc3c(c(=O)n(C)c(=O)n3C)n2Cc2ccc(Cl)c(Cl)c2)cc1,inactive: 4.1%
16,CCc1ccc(NS(=O)(=O)c2c(-c3ccccc3)csc2C(=O)OC)cc1,inactive: -0.323%
17,COc1ccccc1N(CC(=O)Nc1cc(C)cc(C)c1)S(C)(=O)=O,inactive: 7.05%
18,O=C(Nc1nnc(S(=O)(=O)N2CCCCCC2)s1)c1ccccc1,inactive: 2.46%
19,CN(Cc1ccco1)S(=O)(=O)c1nnc(NC(=O)c2ccccc2)s1,inactive: 0.116%
20,CCc1cccc(NC(=O)Cn2ccn3nc(-c4ccc(OC)c(OC)c4)cc3c2=O)c1,inactive: -1.13%
21,COc1ccc(S(=O)(=O)N(CC(=O)Nc2ccc3c(c2)OCO3)c2ccc(C)cc2)cc1,inactive: 15.7%
22,COc1cc(OC)cc(C(=O)Nc2ccc3c(c2)n(C)c(=O)c(=O)n3C)c1,inactive: 10.9%
23,Cc1ccc(OCc2cc(=O)n3c4c(sc3n2)CCCC4)cc1C,inactive: 12.3%
24,COc1ccc(NC(=O)c2oc3ccccc3c2NC(=O)C23CC4CC(CC(C4)C2)C3)cc1,inactive: 0.235%
25,CCOc1ccccc1CNC(=O)c1ccc2c(c1)nc1n2CCC(C)C1 (configuration not stated),inactive: 2.79%
26,Nc1ncc(S(=O)(=O)Nc2ccc(OC(F)(F)F)cc2)cn1,inactive: 1.22%
27,CC(=O)c1ccc(N2C(=O)Nc3ccccc3S2(=O)=O)cc1,inactive: 9.28%
